# Measured values: PubChem BioAssay AID588453 (National Center for Advancing Translational Sciences (NCATS), 2011)
# The campaign covered roughly 390,000 compounds. About 4,000 (1%) were called active. The inconclusive results got no clear call from the source; some entries with a clear call stand among them for comparison. The call rests on the fitted dose curve; in most records, active means well fitted inhibition curve with a large enough effect; inconclusive means small, poorly fitted or top-dose-only effect; inactive means no such curve, though single readings can be large or run the other way. Potencies of inconclusive entries are doubtful fits and often do not repeat.
# Target: Thioredoxin reductase 1, cytoplasmic (Rattus norvegicus) (UniProt O89049)
# Assay: qHTS Assay for Inhibitors of Mammalian Selenoprotein Thioredoxin Reductase 1 (TrxR1): qHTS; further: nearly all actives have a fitted effect of over 65% in size
# Conditions: recombinant rTrxR1, NADPH fluorescence consumption, selenite substrate; series mostly up to 114 µM; activity change, negative = inhibition: at the top concentration
# Outline: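 Rat TrxR1 (90 nM in the dispensed reagent) was pre-reduced with 400 uM NADPH for 5 min at room temperature, then incubated with compound for 15 min. After 400 uM selenite was added, NADPH fluorescence (Ex 340/Em 450 nm) was followed for 8 min.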
# On the % scale 0 is the no-effect control and ±100 the full control effect; potency means the concentration at half of the fitted maximal effect; tags describe the fitted curve by direction and shape.
# Chain of UniProt O89049 (O89049 whole entry, looked up): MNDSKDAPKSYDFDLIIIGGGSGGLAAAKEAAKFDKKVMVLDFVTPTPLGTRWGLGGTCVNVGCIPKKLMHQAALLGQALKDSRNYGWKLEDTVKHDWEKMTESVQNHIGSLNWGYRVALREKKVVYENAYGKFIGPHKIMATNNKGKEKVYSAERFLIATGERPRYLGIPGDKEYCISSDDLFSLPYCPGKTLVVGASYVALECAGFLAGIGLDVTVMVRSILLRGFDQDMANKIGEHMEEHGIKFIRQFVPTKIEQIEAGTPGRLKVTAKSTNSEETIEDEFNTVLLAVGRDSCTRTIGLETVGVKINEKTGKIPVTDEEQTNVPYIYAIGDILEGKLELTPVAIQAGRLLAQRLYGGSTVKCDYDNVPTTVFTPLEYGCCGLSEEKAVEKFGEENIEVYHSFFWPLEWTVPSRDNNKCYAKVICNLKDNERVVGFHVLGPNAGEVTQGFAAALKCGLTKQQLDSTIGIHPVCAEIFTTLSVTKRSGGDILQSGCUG
SMILES,Potency,"activity change, negative = inhibition"
CCOCCCNC(=O)CS(=O)(=O)Cc1nc(-c2cccc(OC)c2)oc1C,"inconclusive: 25.1 µM [inhibitor, partial curve]",–
Cc1cc(C(=O)CSc2nc3ccc(Cl)cc3[nH]2)c(C)n1Cc1ccco1,"inconclusive: 56.2 µM [inhibitor, partial curve]",–
CCn1c(SCC(=O)N(C)CC(=O)Nc2ccc(OC)cc2)nnc1-c1ccco1,"inconclusive: 70.8 µM [inhibitor, partial curve]",–
C/C(=N\NC(=O)Cc1cccn1C)c1cccc2ccccc12,"inconclusive: 79.4 µM [inhibitor, partial curve, poor fit]",–
Clc1ccccc1OCc1nc(-c2ccc(Br)o2)no1,"inconclusive: 89.1 µM [inhibitor, single point]",–
CC1CCN(Cc2c(C(=O)N/N=C/c3cc(Cl)ccc3O)nnn2-c2nonc2N)CC1,–,inactive: 14.1%
Oc1ccc(/C=N/Nc2cc(N3CCOCC3)nc(N3CCOCC3)n2)cc1O,"inconclusive: 89.1 µM [inhibitor, single point]",–
Cc1cc(C)c2sc(N(CCN(C)C)C(=O)CCS(=O)(=O)c3ccccc3)nc2c1,"inconclusive: 89.1 µM [inhibitor, single point]",–
CC(=O)C1=NOC2C(=O)N(c3ccccc3)C(=O)C12 (stereo not drawn),–,inactive: 0.515% [at 2.29 µM]
CCC(c1ccc(O)c(O)c1)C(CC)c1ccc(O)c(O)c1 (stereo not drawn),active: 7.94 µM,–
COc1cccc(C(=O)N2CCC(N3CC(C)OC(C)C3)CC2)c1 (stereo not drawn),"inconclusive: 79.4 µM [inhibitor, single point]",–
CCCN1Cc2cccc(C(=O)N3CCN(c4ccc(OC)cc4)CC3)c2C1=O,"inconclusive: 39.8 µM [inhibitor, partial curve, poor fit]",–
O=C(CCl)N(Cc1cc(=O)[nH]c2ccccc12)c1ccccc1,"inconclusive: 10 µM [inhibitor, partial curve, poor fit]",–
CCc1cc(=O)oc2cc(C)cc(OCC(=O)NCc3ccccn3)c12,"inconclusive: 79.4 µM [inhibitor, single point]",–
CC(C(N)=O)N1c2cccc3cccc(c23)S1(=O)=O (stereo not drawn),"inconclusive: 89.1 µM [inhibitor, partial curve, poor fit]",–
COc1ccc2c(C(=O)CCl)c[nH]c2c1,"inconclusive: 15.8 µM [inhibitor, partial curve]",–
C#CC(CC)(CC)NC(=S)Nc1ccc(S(N)(=O)=O)cc1,–,inactive: 18.5% [at 57.1 µM]
O=C(CCNc1ccc(Cc2ccncc2)cc1)c1ccc([N+](=O)[O-])cc1,active: 15.8 µM,–
O=C1CCC(=O)N1c1nc2n(n1)C(c1ccccc1)C=C(c1ccc(Br)cc1)N2 (stereo not drawn),active: 70.8 µM,–
COc1cc2nc(N3CCNCC3)nc(N)c2cc1OC,active: 79.4 µM,–
O=C(CCCC(=O)N(CC(=O)NC1CCCCC1)Cc1ccccc1)Nc1ccccn1,"inconclusive: 70.8 µM [inhibitor, single point]",–
COc1ccc(NC(=O)Cn2ncc3c([nH]c4ccccc43)c2=O)cc1Cl,–,inactive: 21.9%
O=C(CCN1CCN(c2ccccc2)CC1)N/N=C/c1ccc([N+](=O)[O-])o1,"inconclusive: 22.4 µM [inhibitor, partial curve]",–

SMILES,Potency,"activity change, negative = inhibition"
O=C(CSc1nnc(-c2ccccn2)n1Cc1ccco1)c1ccccc1,"inconclusive: 25.1 µM [inhibitor, partial curve, poor fit]",–
CCCn1c(CC)nc([N+](=O)[O-])c1Sc1ccc(F)cc1,"inconclusive: 79.4 µM [inhibitor, partial curve]",–
CN(C(=O)C1CCCO1)c1nnc(-c2ccncc2)s1 (stereo not drawn),"inconclusive: 39.8 µM [inhibitor, single point]",–
C#CC(=O)CCC1CCCN1C(=O)OC(C)(C)C (stereo not drawn),"inconclusive: 12.6 µM [inhibitor, partial curve, poor fit]",–
CN(Cc1ccon1)C(=O)CC1C(=O)NCCN1Cc1ccc(Cl)c(F)c1 (stereo not drawn),"inconclusive: 44.7 µM [inhibitor, partial curve]",–
O=C(NCc1ccco1)c1ccccc1NS(=O)(=O)c1ccc(Br)s1,"inconclusive: 39.8 µM [inhibitor, single point]",–
C=CCn1c(SCc2ccc3c(c2)OCO3)nc2scc(-c3ccco3)c2c1=O,"inconclusive: 50.1 µM [inhibitor, partial curve, poor fit]",–
Cc1nnc(N2CCCC(C(=O)NCc3ccc(OC(C)C)cc3)C2)c2nn(-c3ccccc3)c(C)c12 (stereo not drawn),–,inactive: 8.52% [at 57.1 µM]
O=C1[C@H]2[C@H](C=CC[C@H]2C(=O)N2CCN(c3ccccc3)CC2)CCN1Cc1ccccc1,"inconclusive: 89.1 µM [inhibitor, single point]",–
CCC1CN(C(=O)Nc2ccccc2C(F)(F)F)c2ccccc2S1 (stereo not drawn),–,inactive: 22.9%
CC1COCC(C)N1C1=C(Cl)C(=O)c2ccccc2C1=O (stereo not drawn),"inconclusive: 0.355 µM [inhibitor, full curve, poor fit]",–
CCOC(=O)c1c(C)[nH]c(C=O)c1Cc1cccc(Cl)c1,–,inactive: -1.04% [at 57.1 µM]
Cc1ccc(Cn2c(N)c(S(=O)(=O)c3cccs3)c3nc4ccccc4nc32)cc1,–,inactive: -20.7%
CCOC(=O)c1cnn(-c2ccccn2)c1N,–,inactive: 10.8% [at 57.1 µM]
CC(/C=C/c1ccco1)=N/NC(=O)Cc1cccs1,active: 39.8 µM,–
COc1ccc2c(c1)c1c(c(=O)n(Cc3ccccc3)c(=O)n1Cc1ccc(C)cc1)n2C,–,inactive: 4.72%
CC(C)c1cc(N2CCN(C(=O)c3ccco3)CC2)n2c(nc3ccccc32)c1C#N,"inconclusive: 44.7 µM [inhibitor, partial curve, poor fit]",–
CC1(C)Cc2cccc(OCC(=O)N3CCN(S(=O)(=O)c4ccc(F)cc4)CC3)c2O1,–,inactive: 9.51% [at 57.1 µM]
O=C(/C=C/c1ccccc1)N/C(=C\c1ccco1)C(=O)NCCO,"inconclusive: 20 µM [inhibitor, partial curve, poor fit]",–
CCOC(=O)N1CCN(C(=O)C2CCN(S(=O)(=O)N(CC)CC)CC2)CC1,–,inactive: 5.27%
COc1ccc(C=C(C#N)C#N)c(CSc2ccccn2)c1,active: 11.2 µM,–
CC1(OC(=O)CCc2ccccc2)C(=O)C=C2C=C(c3ccc(C#N)cc3)N(Cc3ccco3)C=C2C1=O (stereo not drawn),"inconclusive: 14.1 µM [inhibitor, partial curve]",–
C/C=C/c1ccc(Oc2nnnn2-c2ccc(C(=O)O)cc2)c(OC)c1,"inconclusive: 20 µM [inhibitor, single point]",–

SMILES,Potency,"activity change, negative = inhibition"
COc1ccc(Cl)cc1NS(=O)(=O)c1cccc(C(=O)NCC(c2ccco2)N(C)C)c1 (stereo not drawn),"inconclusive: 56.2 µM [inhibitor, single point]",–
O=C(CN1CCN(Cc2ccccc2Cl)CC1)N/N=C/C=C/c1ccco1,"inconclusive: 56.2 µM [inhibitor, single point]",–
CCn1c(CNC(C)=O)nnc1SCC(=O)c1ccc(Br)cc1,"inconclusive: 25.1 µM [inhibitor, full curve]",–
CCc1ccccc1NC(=O)Nc1cc(C(=O)NCc2cccc(F)c2)ccc1N1CCCC1,–,inactive: 14% [at 57.1 µM]
CCOC(=O)c1c(NC(=O)CSc2nnc(CNC(=O)c3ccco3)n2C)sc2c1CCC2,"inconclusive: 28.2 µM [inhibitor, partial curve, poor fit]",–
CC1(C)CC(=S)Nc2ccccc2S1,"inconclusive: 79.4 µM [inhibitor, single point]",–
O=C(Cn1ncn2nc(-c3cccs3)cc2c1=O)NCc1ccc(Cl)cc1,–,inactive: 11.4%
CN(CC(CC(=O)Nc1nncs1)c1ccccc1)S(=O)(=O)c1ccc(Br)cc1 (stereo not drawn),"inconclusive: 17.8 µM [inhibitor, partial curve, poor fit]",–
CC(=O)Oc1ccc(N2C(=O)C3C4C=CC(C5CC45)C3C2=O)cc1[N+](=O)[O-] (stereo not drawn),active: 44.7 µM,–
O=C(/C=C/c1ccco1)NC(=S)Nc1ccccc1Br,"inconclusive: 89.1 µM [inhibitor, single point]",–
CCC(=O)NC(=S)Nc1ccc(-c2nc3ccc(C)cc3s2)cc1,–,inactive: 7.01%
COC(=O)c1cc(OC)c(OC)cc1NC(=O)c1ccc(OC)c(OC)c1,"inconclusive: 89.1 µM [inhibitor, single point]",–
COc1ccc2[nH]c(=O)c(CN(C(=O)c3cccnc3)c3ccccc3OC)cc2c1,"inconclusive: 89.1 µM [inhibitor, single point]",–
CC1(C)CC(=O)C(CC2=C(O)CC(C)(C)CC2=O)C(=O)C1,"inconclusive: 22.4 µM [inhibitor, full curve, poor fit]",–
COc1ccc(C(C2C(=O)CC(C)(C)CC2=O)C2C(=O)CC(C)(C)CC2=O)cc1,"inconclusive: 39.8 µM [inhibitor, single point]",–
O=C1CC(=O)N(CCc2ccccc2)C(=O)N1CCc1ccccc1,"inconclusive: 44.7 µM [inhibitor, partial curve]",–
Cc1cccc2nc(Cn3c(=O)n(CCCC(=O)NCc4ccco4)c(=O)c4ccccc43)cc(=O)n12,"inconclusive: 79.4 µM [inhibitor, single point]",–
Fc1ccc(-n2c(Cn3nnc4ccccc43)n[nH]c2=S)cc1,"inconclusive: 3.55 µM [inhibitor, full curve, poor fit]",–
C=CCNC(=O)c1onc(CSc2cccc(Cl)c2)c1C(=O)O,–,inactive: 4.59%
O=S(=O)(c1ccccc1Cl)N1CCN(c2nc(-c3cccs3)nc3ccccc23)CC1,inactive,–
COc1ccc(N(CC(C)C)S(=O)(=O)c2nnc(NC(=O)c3cccs3)s2)cc1,–,inactive: 8.32%
CCCN(CC(=O)Nc1ccccc1OC)Cc1c(O)ccc2ccccc12,"inconclusive: 28.2 µM [inhibitor, partial curve, poor fit]",–
